Measurements: the supplement of paper PMC3334620
In all, about 33,000 sequences were measured (“E-score (-0.5 to 0.5)”: median about -0.012, highest 2% from about 0.29 on). Some of the results follow.

Target: T1, Ybr033w (UniProt P38073)
T1 sequence: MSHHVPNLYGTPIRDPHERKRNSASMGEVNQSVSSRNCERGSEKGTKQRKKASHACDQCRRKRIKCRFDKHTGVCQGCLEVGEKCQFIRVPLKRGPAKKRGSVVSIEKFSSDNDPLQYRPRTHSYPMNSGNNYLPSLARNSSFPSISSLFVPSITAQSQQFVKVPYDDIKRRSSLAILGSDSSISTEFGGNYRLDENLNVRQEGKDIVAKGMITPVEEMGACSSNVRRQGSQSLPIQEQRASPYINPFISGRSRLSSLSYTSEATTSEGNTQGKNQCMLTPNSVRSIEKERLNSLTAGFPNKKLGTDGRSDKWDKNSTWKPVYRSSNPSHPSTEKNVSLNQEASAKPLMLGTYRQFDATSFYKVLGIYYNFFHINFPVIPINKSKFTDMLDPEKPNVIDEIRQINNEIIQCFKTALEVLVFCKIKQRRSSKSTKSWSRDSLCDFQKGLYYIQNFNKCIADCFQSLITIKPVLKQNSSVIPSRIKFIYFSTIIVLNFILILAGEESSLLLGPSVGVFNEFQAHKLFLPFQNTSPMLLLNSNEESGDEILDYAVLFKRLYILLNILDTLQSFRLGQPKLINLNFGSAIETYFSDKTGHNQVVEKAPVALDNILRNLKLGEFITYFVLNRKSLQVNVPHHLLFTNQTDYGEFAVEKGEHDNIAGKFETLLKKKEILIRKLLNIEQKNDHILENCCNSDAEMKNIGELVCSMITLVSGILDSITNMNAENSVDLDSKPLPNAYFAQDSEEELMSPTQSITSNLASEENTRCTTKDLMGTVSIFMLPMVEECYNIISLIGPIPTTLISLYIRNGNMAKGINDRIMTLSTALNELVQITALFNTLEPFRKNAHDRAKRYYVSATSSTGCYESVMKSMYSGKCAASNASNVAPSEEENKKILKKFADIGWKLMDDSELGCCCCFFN
Assay: PBM E-score (8-mer binding enrichment) (E-score (-0.5 to 0.5)); higher = stronger / more preferred TF binding; most listed sequences are background and not binding sites
Conditions: protein concentration: 200 nM; construct: GST-full length
Summary of the method: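 Universal all-10-mer Agilent arrays, double-stranded by primer extension on fresh or once-stripped slides, were probed with about 100-200 nM GST-tagged yeast transcription factors made by PURExpress. Fluorescent anti-GST detected bound protein, and masliner normalised the scans. E-scores from the Universal PBM Analysis Suite were given to each ungapped eight-base word pooled with its reverse complement.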

Sequence	PBM E-score
CACTTGTA	0.0975
CTGAGCTA	-0.0777
ACTTTTCG	0.248
TTAGAAAA	0.172
TAACTGAA	0.0212
ACCACGGA	-0.239
GCAGTGCA	0.054
CCTACTAA	0.155
TGCGAGAA	-0.17
CGAGCCCG	-0.227
CCGGTTCC	-0.13
ACTTATCG	0.00773
CCTGGCAG	-0.148
CCGTGGAA	0.11
ACTGCAAA	0.173
TATGCTGA	0.163
CCCTAACC	-0.265
AGACTCGG	-0.198
ACTCCTAC	0.0754
GCATAAGC	0.101
CTGCCCAC	-0.165
ACCACTCT	-0.00146

Sequence	PBM E-score
ACGTCGAC	-0.102
ATACCAAG	0.116
CAACATTA	0.162
CATGTGTC	-0.0905
CCCAGAGA	-0.238
ACCATACC	-0.0191
AATATACC	0.182
ATGAACCA	0.225
ATCAGCAT	0.186
AAAAGTTT	0.266
ACGAGGAG	-0.00401
AAGTGGGC	-0.0419
CCCTACGA	-0.0577
CGACCTCA	-0.0245
CTTTTACC	0.101
CTCTGGCA	-0.0948
CTGTTGTC	-0.0159
TAAGATAA	-0.0896
TTCTTCAA	0.107
AATCAGCC	-0.206
ACAGGGTC	-0.139
AGGGTACA	-0.0463

Sequence	PBM E-score
ATCTTGAA	0.187
GTTTATGA	0.0962
CGTCTTAA	-0.00538
CGATGTGA	-0.16
ATACCTGG	-0.328
CAGTGAGA	0.115
AACGTTGT	0.0448
CGAAGACG	-0.227
CGCTTTTC	-0.0741
GACAAGAC	-0.132
TCCAAACA	-0.0188
AGTCGGTC	-0.155
CGGTCTTA	-0.0935
AATGTTAC	0.192
AGCTTCTC	-0.0146
CGGACAAA	0.297
GTCACGAA	-0.0549
GAACTTAC	0.123
GGTGGCGA	-0.195
CACATACC	-0.0596
CTGGACGA	-0.176
AGCAAAAT	0.2

Sequence	PBM E-score
CGTGGGCC	-0.155
AAAACGGC	0.0978
CCTTCTAA	0.0287
ATATCATG	0.117
CGAATACA	0.0752
CATGAATG	0.0636
ATTATTAC	0.343
CCTAGGGC	-0.164
ATGTGCAG	-0.0953
GCTGGCTA	-0.236
AAAACACG	0.163
ATATGTAG	0.0986
CCAGCGGG	-0.0746
ATGCAGAA	0.139
GCAGTAAA	-0.0178
AGTTTTCC	0.216
AGCTTAAC	-0.0905
CTTCCTTC	-0.0503
CATACTTC	0.0369
AGAAAGAT	0.234
